Measurements as given in the supplement of paper PMC11125491.
± gives the standard deviation of the averaged measurements. Growth of baker's yeast expressing single-residue variants of Pneumocystis jirovecii dihydrofolate reductase in 8.8 or 44 µM methotrexate (about 75% and 90% inhibition of the wild type). Selection coefficient per generation; 0 = like wild type, above 0 = less sensitive, below 0 = more sensitive or loss of function. No active / inactive call per row; the paper calls resistant above 0.220 (8.8 µM) or 0.243 (44 µM) together with a significance test. At 44 µM about 15% of codons end with one read or none, so the lowest values are floors (replicate rank correlation 0.74; 0.94 at 8.8 µM).

B1: UniProt A0EPZ9; numbered along this chain (parent)
chain: MDWQKSLTLIVALTLSRGIGLKNDLPWKLKSDMMFFSRVTSGLLVTRSTGQMNVVLMGRKTWESLPAHSRPLKNRINVVISRQEVLDLGGGAYHARSLDDALALLSQIYDSTSKIQLNRVFVIGGGELCKAAMEHSRLNRIIATVIHNEVDCDVFFPIDFRSSQSCLPWRKQDHSVLEAWVGSKVPQGKINENGFIYEFEMWIRDI

Variants of: B1
Experiment: selection coefficient against synonymous wild-type codons (log2 per generation); higher = faster growth than wild type
Conditions: with Saccharomyces cerevisiae carrying the variant on a plasmid
Protocol: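 Pooled growth of yeast carrying single-residue variants of P. jirovecii dihydrofolate reductase (own DFR1 gene intact), two passages at 30 °C, three cultures, sequenced before and after. Codons with under 15 starting reads are left out; codons of one change are averaged.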

## MDWQKSLTLIVALTLSRGIGLKNDLPWKLKSDMMFFSRVTSGLLVTRSTGQMNVVLMGRKTWESLPAHSRPLKNRINVVISRQEVLDLGGGAYHARSLDDALALLSQIYDSTSKIQLNRVFVIGYGELCKAAMEHSRLNRIIATVIHNEVDCDVFFPIDFRSSQSCLPWRKQDHSVLEAWVGSKVPQGKINENGFIYEFEMWIRDI [G125Y]
Methotrexate 8.8 µM
  selection coefficient against synonymous wild-type codons (log2): -0.67 ± 0.05
Methotrexate 44 µM
  selection coefficient against synonymous wild-type codons (log2): -0.297 ± 0.028

## MDWQKSLTLIVALTLSRGIGLKNDLPWKLKSDMMFFSRVTSGLLVTRSTGQMNVVLMGRKTWESLPAHSRPLKNRINVVISRQEVLDLGGGAYHARSLDDALALLSQIYDSTSKIQLNRVFVIGWGELCKAAMEHSRLNRIIATVIHNEVDCDVFFPIDFRSSQSCLPWRKQDHSVLEAWVGSKVPQGKINENGFIYEFEMWIRDI [G125W]
Methotrexate 8.8 µM
  selection coefficient against synonymous wild-type codons (log2): -0.838 ± 0.23
Methotrexate 44 µM
  selection coefficient against synonymous wild-type codons (log2): -0.376 ± 0.13

## MDWQKSLTLIVALTLSRGIGLKNDLPWKLKSDMMFFSRVTSGLLVTRSTGQMNVVLMGRKTWESLPAHSRPLKNRINVVISRQEVLDLGGGAYHARSLDDALALLSQIYDSTSKIQLNRVFVIGTGELCKAAMEHSRLNRIIATVIHNEVDCDVFFPIDFRSSQSCLPWRKQDHSVLEAWVGSKVPQGKINENGFIYEFEMWIRDI [G125T]
Methotrexate 8.8 µM
  selection coefficient against synonymous wild-type codons (log2): -0.774 ± 0.074
Methotrexate 44 µM
  selection coefficient against synonymous wild-type codons (log2): -0.16 ± 0.42

## MDWQKSLTLIVALTLSRGIGLKNDLPWKLKSDMMFFSRVTSGLLVTRSTGQMNVVLMGRKTWESLPAHSRPLKNRINVVISRQEVLDLGGGAYHARSLDDALALLSQIYDSTSKIQLNRVFVIGVGELCKAAMEHSRLNRIIATVIHNEVDCDVFFPIDFRSSQSCLPWRKQDHSVLEAWVGSKVPQGKINENGFIYEFEMWIRDI [G125V]
Methotrexate 8.8 µM
  selection coefficient against synonymous wild-type codons (log2): -0.714 ± 0.096
Methotrexate 44 µM
  selection coefficient against synonymous wild-type codons (log2): -0.403 ± 0.081

## MDWQKSLTLIVALTLSRGIGLKNDLPWKLKSDMMFFSRVTSGLLVTRSTGQMNVVLMGRKTWESLPAHSRPLKNRINVVISRQEVLDLGGGAYHARSLDDALALLSQIYDSTSKIQLNRVFVIGGCELCKAAMEHSRLNRIIATVIHNEVDCDVFFPIDFRSSQSCLPWRKQDHSVLEAWVGSKVPQGKINENGFIYEFEMWIRDI [G126C]
Methotrexate 8.8 µM
  selection coefficient against synonymous wild-type codons (log2): 0.108 ± 0.013
Methotrexate 44 µM
  selection coefficient against synonymous wild-type codons (log2): 0.269 ± 0.067

## MDWQKSLTLIVALTLSRGIGLKNDLPWKLKSDMMFFSRVTSGLLVTRSTGQMNVVLMGRKTWESLPAHSRPLKNRINVVISRQEVLDLGGGAYHARSLDDALALLSQIYDSTSKIQLNRVFVIGGDELCKAAMEHSRLNRIIATVIHNEVDCDVFFPIDFRSSQSCLPWRKQDHSVLEAWVGSKVPQGKINENGFIYEFEMWIRDI [G126D]
Methotrexate 8.8 µM
  selection coefficient against synonymous wild-type codons (log2): 0.327 ± 0.03
Methotrexate 44 µM
  selection coefficient against synonymous wild-type codons (log2): 0.576 ± 0.046

## MDWQKSLTLIVALTLSRGIGLKNDLPWKLKSDMMFFSRVTSGLLVTRSTGQMNVVLMGRKTWESLPAHSRPLKNRINVVISRQEVLDLGGGAYHARSLDDALALLSQIYDSTSKIQLNRVFVIGGEELCKAAMEHSRLNRIIATVIHNEVDCDVFFPIDFRSSQSCLPWRKQDHSVLEAWVGSKVPQGKINENGFIYEFEMWIRDI [G126E]
Methotrexate 8.8 µM
  selection coefficient against synonymous wild-type codons (log2): 0.508 ± 0.067
Methotrexate 44 µM
  selection coefficient against synonymous wild-type codons (log2): 0.707 ± 0.051

## MDWQKSLTLIVALTLSRGIGLKNDLPWKLKSDMMFFSRVTSGLLVTRSTGQMNVVLMGRKTWESLPAHSRPLKNRINVVISRQEVLDLGGGAYHARSLDDALALLSQIYDSTSKIQLNRVFVIGGAELCKAAMEHSRLNRIIATVIHNEVDCDVFFPIDFRSSQSCLPWRKQDHSVLEAWVGSKVPQGKINENGFIYEFEMWIRDI [G126A]
Methotrexate 8.8 µM
  selection coefficient against synonymous wild-type codons (log2): 0.357 ± 0.027
Methotrexate 44 µM
  selection coefficient against synonymous wild-type codons (log2): 0.575 ± 0.042
